Reference: PMC10924033
These are yes or no findings as the source states them, for the method shown. In cells and extracts the contact can be indirect. Some entries that bind do so weakly or less than the wild type. For some assays here: Where a sequence is shown, tags or fusion partners need not be part of it.

Amino acid sequences for entries named in this document (tags omitted).
UniProt Q66HA1: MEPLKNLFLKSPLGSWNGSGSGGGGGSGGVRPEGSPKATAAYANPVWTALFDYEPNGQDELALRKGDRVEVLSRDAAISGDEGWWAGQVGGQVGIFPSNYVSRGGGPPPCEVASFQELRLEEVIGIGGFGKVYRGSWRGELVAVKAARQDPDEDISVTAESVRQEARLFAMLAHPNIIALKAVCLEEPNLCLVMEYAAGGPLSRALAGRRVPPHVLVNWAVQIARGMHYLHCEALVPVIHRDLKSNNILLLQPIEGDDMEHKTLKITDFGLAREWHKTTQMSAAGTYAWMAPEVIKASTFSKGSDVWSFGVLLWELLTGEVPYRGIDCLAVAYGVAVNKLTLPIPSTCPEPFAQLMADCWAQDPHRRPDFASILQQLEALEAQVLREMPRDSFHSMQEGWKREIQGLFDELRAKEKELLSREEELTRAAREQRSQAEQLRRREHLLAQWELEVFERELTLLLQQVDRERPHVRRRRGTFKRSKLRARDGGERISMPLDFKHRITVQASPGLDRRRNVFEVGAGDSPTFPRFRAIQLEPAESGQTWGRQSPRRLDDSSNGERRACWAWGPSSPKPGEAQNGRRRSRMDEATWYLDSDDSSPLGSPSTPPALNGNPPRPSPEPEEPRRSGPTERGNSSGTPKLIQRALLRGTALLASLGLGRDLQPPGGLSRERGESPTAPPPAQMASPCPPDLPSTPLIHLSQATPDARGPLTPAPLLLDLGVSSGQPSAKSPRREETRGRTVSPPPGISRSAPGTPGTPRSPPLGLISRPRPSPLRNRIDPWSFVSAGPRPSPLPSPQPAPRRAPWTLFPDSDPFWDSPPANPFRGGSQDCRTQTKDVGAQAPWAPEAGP
UniProt Q80XI6: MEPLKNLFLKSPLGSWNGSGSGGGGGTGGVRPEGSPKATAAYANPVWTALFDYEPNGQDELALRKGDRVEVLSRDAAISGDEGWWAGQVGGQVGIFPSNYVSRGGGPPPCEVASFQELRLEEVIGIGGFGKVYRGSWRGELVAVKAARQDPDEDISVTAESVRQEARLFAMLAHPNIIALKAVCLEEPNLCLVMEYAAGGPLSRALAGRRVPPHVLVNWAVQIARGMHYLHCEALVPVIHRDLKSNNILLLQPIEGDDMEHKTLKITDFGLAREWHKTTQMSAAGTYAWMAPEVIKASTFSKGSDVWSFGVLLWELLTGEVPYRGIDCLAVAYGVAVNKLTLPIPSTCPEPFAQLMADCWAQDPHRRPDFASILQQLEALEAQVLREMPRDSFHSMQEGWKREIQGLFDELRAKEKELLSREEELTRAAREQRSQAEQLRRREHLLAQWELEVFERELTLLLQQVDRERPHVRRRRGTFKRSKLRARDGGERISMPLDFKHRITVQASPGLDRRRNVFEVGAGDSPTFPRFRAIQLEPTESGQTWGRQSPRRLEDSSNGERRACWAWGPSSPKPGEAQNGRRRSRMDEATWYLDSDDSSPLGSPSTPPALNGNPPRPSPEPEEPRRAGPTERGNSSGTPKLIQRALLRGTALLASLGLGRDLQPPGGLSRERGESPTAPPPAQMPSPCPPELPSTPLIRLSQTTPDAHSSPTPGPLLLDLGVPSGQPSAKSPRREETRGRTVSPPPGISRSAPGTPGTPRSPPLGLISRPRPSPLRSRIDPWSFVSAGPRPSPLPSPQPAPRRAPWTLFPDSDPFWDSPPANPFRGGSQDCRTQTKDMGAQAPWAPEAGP

Assays:
[1] = target: T1, PIAS3 in the HEK293T competition experiment with 133–320 (Fig. 2I) (UniProt O70260); assay: co-IP; HEK293T cells, MLK3-PIAS3 interaction with increasing overexpression of 133–320 (dose-dependent)
T1 sequence: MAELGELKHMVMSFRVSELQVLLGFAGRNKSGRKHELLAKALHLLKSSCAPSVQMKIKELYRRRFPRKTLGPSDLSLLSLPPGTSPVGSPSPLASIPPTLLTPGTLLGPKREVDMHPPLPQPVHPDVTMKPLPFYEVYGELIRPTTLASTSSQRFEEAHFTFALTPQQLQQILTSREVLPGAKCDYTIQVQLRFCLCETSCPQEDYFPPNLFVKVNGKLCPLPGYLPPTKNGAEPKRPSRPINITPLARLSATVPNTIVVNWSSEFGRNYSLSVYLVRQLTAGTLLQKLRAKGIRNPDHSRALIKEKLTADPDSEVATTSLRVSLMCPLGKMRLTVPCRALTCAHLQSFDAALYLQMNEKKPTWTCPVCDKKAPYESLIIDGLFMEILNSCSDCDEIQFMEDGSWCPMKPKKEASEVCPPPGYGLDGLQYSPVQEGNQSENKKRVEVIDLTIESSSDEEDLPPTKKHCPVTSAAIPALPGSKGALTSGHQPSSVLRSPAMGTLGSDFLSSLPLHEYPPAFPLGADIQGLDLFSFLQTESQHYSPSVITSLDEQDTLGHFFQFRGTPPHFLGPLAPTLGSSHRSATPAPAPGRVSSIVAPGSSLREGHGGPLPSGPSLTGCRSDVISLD

[2] = target: T2, Myc-tagged full-length rat PIAS3 (Myc-PIAS3 WT) (rat) (UniProt O70260); assay: co-IP; HEK293T cells coexpressing MLK3 with Myc-PIAS3 WT or its truncated mutants (1–500, 1–320, 1–132, 133–320); immunoblot
T2 sequence: T1 sequence

[3] = target: T3, Myc-tagged rat PIAS3 truncated mutant AAs 1–132 (rat) (UniProt O70260); assay: as above
T3 sequence: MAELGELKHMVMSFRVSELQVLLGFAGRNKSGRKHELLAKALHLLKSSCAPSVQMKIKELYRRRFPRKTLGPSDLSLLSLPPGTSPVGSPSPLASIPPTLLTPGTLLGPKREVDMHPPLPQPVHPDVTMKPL

[4] = target: T4, Myc-tagged rat PIAS3 truncated mutant AAs 1–320 (rat) (UniProt O70260); assay: as above
T4 sequence: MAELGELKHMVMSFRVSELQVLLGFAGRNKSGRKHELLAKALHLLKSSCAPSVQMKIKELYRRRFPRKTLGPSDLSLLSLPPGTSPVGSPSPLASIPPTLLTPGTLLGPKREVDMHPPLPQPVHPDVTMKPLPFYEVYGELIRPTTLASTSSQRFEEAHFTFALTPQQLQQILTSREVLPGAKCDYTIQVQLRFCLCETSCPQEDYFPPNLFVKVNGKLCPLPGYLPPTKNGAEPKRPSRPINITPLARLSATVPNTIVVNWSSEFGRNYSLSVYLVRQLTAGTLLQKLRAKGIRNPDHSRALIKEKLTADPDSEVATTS

[5] = target: T5, Myc-tagged rat PIAS3 truncated mutant AAs 1–500 (rat) (UniProt O70260); assay: as above
T5 sequence: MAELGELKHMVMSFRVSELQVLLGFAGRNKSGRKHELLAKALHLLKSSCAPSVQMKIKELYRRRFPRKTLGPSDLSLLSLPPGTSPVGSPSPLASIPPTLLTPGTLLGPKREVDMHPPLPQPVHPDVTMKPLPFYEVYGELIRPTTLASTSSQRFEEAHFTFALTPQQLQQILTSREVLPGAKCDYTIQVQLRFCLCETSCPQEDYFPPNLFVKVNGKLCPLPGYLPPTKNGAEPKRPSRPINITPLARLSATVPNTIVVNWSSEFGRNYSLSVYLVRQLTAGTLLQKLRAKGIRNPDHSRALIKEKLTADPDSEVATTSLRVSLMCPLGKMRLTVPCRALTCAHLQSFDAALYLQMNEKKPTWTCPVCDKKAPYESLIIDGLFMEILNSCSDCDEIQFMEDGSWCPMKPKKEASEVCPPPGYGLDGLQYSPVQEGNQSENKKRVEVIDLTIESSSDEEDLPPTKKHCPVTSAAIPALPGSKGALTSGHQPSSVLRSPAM

[6] = target: T6, PINIT domain of PIAS3, AAs 133–320, Myc- and His-tagged (133–320-Myc-His) (rat) (UniProt O70260); assay: as above
T6 sequence: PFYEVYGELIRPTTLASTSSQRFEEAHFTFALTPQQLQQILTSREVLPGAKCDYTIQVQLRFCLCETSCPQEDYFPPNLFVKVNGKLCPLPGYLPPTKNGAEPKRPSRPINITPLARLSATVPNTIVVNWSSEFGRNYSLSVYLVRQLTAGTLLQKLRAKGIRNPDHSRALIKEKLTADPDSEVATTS

[7] = target: T6, PINIT domain of PIAS3, AAs 133–320, Myc- and His-tagged (133–320-Myc-His) (rat); assay: pull-down; His pulldown: His-tagged PIAS3 bait from HEK293T lysate loaded on Ni resin, mixed with cell lysate overexpressing MLK3 at 4 °C for 3 h; washed with 50 mM NaH2PO4, 300 mM NaCl, 60 mM imidazole, pH 8.0; only the target purified
[8] = target: T7, PIAS3, SUMO ligase, endogenous, rat (rat (endogenous in primary cortical neurons and hippocampal CA1)) (UniProt O70260); assay: co-IP; lysates of rat primary cortical neurons infected with Lenti-PINIT or Lenti-NC at DIV 9, OGD/R at DIV 13; immunoblot
T7 sequence: T1 sequence

[9] = target: T7, PIAS3, SUMO ligase, endogenous, rat (rat (endogenous in primary cortical neurons and hippocampal CA1)); assay: co-IP; homogenates of rat hippocampal CA1 five weeks after injection of AAV-PINIT or AAV-NC, 15 min ischemia and six hours of reperfusion; immunoblot
[10] = target: T7, PIAS3, SUMO ligase, endogenous, rat (rat (endogenous in primary cortical neurons and hippocampal CA1)); assay: co-IP; homogenates of rat hippocampal CA1, sham and time course of reperfusion after 15 min global ischemia (I/R); IP buffer as in the methods; immunoblot
[11] = target: T7, PIAS3, SUMO ligase, endogenous, rat (rat (endogenous in primary cortical neurons and hippocampal CA1)); assay: co-IP; lysates of rat primary cortical neurons, normoxia and time course of reoxygenation after 2 h OGD; IP buffer with 150 mM NaCl, 1% Triton X-100, 0.5% NP-40, overnight at 4 °C, Protein A + G magnetic beads; immunoblot
[12] = target: T8, PIAS3, endogenous, mouse (mouse (endogenous in cerebral hemispheres)) (UniProt O54714); assay: co-IP; homogenates of mouse cerebral hemispheres, ipsilateral (ischemic) and contralateral, after MCAO/R; immunoblot
T8 sequence: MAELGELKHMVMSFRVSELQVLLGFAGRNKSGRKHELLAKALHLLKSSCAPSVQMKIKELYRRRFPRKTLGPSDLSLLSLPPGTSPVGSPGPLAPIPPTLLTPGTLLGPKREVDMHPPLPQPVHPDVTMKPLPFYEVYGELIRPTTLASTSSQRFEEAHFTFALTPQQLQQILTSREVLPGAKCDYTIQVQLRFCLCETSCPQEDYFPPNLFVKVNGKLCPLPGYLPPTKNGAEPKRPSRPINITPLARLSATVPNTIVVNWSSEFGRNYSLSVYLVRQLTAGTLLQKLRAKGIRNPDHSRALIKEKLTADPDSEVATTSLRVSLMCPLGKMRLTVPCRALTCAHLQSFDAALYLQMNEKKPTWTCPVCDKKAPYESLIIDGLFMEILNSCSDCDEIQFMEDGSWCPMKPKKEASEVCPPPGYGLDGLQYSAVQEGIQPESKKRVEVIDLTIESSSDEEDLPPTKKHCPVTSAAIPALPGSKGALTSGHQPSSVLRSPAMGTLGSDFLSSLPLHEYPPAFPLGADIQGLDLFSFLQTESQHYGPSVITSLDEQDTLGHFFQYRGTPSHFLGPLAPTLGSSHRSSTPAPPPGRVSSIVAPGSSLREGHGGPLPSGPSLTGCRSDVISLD

[13] = target: Mixed lineage kinase 3 (MLK3), endogenous, rat (rat (endogenous in primary cortical neurons and hippocampal CA1)) (UniProt Q66HA1); assay: co-IP; lysates of rat primary cortical neurons infected with Lenti-PINIT or Lenti-NC at DIV 9, OGD/R at DIV 13; immunoblot
[14] = target: Mixed lineage kinase 3 (MLK3), endogenous, rat (rat (endogenous in primary cortical neurons and hippocampal CA1)) (UniProt Q66HA1); assay: co-IP; homogenates of rat hippocampal CA1 five weeks after injection of AAV-PINIT or AAV-NC, 15 min ischemia and six hours of reperfusion; immunoblot

Myc-tagged MLK3 (wild type), overexpressed in HEK293T cells (from UniProt Q66HA1 1-850)
binding [1]: binds
binding [2]: binds
binding [3]: no binding
binding [4]: binds
binding [5]: binds
binding [6]: binds
binding [7]: binds

Mixed lineage kinase 3 (MLK3), endogenous, rat (from UniProt Q66HA1 1-850)
binding [8]: binds
binding [9]: binds
binding [10]: binds
binding [11]: binds

Mixed lineage kinase 3 (MLK3), endogenous, mouse (from UniProt Q80XI6 1-850)
binding [12]: binds

B1: PINIT domain of PIAS3 expressed from lentivirus (Lenti-PINIT) (domain or fragment, UniProt O70260 133-320)
chain: T6 sequence
binding [13]: binds

B2: PINIT domain of PIAS3 expressed from adeno-associated virus (AAV-PINIT) (domain or fragment, UniProt O70260 133-320)
chain: T6 sequence
binding [14]: binds
